Results published in PMC4336329 (PLoS ONE, 2015).
The whole screen tested about 310,000 compounds, of which about 2,200 (0.71%) showed an effect of 50% or more. The effect is printed as a negative number. Some of the results follow.

What follows are molecules tested against human ether-à-go-go-related gene (hERG) potassium channel (human, UniProt Q12809) (assay: primary screen, population patch clamp on CHO cells stably expressing hERG).
Chain of human ether-à-go-go-related gene (hERG) potassium channel (Q12809 whole entry, looked up): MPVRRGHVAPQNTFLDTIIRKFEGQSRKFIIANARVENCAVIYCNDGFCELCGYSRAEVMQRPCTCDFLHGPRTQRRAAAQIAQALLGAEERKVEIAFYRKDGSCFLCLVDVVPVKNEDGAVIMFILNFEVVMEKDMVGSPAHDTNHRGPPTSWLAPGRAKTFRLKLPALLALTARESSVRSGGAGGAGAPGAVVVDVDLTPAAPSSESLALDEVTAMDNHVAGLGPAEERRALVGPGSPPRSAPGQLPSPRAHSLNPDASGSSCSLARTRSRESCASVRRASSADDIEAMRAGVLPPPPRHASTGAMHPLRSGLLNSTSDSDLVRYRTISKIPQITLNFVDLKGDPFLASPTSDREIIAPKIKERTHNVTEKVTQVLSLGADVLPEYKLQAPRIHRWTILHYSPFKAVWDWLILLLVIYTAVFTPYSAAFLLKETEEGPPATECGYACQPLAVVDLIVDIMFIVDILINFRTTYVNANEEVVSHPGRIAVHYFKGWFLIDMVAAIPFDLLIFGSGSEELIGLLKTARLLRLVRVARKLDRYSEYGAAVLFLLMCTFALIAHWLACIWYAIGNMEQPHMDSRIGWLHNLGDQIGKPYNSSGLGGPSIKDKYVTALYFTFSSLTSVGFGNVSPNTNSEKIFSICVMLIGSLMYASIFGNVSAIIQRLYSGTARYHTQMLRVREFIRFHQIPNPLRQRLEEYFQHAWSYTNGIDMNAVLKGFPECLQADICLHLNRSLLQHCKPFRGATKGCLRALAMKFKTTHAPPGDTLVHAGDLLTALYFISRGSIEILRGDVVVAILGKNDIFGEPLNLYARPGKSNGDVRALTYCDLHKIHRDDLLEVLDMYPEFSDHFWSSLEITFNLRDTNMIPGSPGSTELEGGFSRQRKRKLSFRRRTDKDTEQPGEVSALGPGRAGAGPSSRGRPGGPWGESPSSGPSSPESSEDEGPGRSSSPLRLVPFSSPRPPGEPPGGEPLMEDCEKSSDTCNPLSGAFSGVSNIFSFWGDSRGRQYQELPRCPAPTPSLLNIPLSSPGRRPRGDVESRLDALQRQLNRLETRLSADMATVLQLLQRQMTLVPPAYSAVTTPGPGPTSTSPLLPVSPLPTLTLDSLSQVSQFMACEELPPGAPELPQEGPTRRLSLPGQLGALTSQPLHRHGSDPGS

Row | SMILES | hERG current change (%, negative = inhibition) at 1uM [%]
1 | COC(=O)CN1C(c2ccc(Cl)cc2)=Nc2ccc(Cl)cc2C1c1ccccc1 (centres unmarked) | 14.7
2 | CCOCC(=O)OCC(=O)Nc1cc(OC)c([N+](=O)[O-])cc1C | 9.89
3 | CCOC(=O)Cn1cnc2sc(C(=O)OC)c(C)c2c1=O | 8.73
4 | O=C(/C=C/c1ccc(Cl)cc1Cl)Nc1ccncc1 | 7.43
5 | COc1ccc(OCC(O)CNS(=O)(=O)c2ccc(C)cc2)cc1 (centres unmarked) | 13.8
6 | c1ccc(-c2ccc(CN3C[C@@H]4C(c5ccccc5)C5(c6ccccc6)CC4(C5)[C@H]3c3ccccc3)cc2)cc1 (some centres unmarked) | 1.07
7 | CCN1CCN(c2nc3ccccc3nc2C(C#N)S(=O)(=O)c2ccc(C)c(C)c2)CC1 (centres unmarked) | -13
8 | C=CCn1c(O)c(C(C)=NCc2cccnc2)c(=O)[nH]c1=O | -9.23
9 | CS(=O)(=O)N(CC(=O)NCc1ccncc1)c1cc(Cl)cc(Cl)c1 | -4.53
10 | CCCCOC(=O)Nc1nc(CC(=O)OCC)cs1 | -4.28
11 | O=C(C1CCC1)N1CCc2cc(S(=O)(=O)NCCN3CCN(c4ccccc4F)CC3)ccc21 | 3.71
12 | Cc1ccnc(NS(=O)(=O)c2ccc(N3C(=O)c4c(Cl)c(Cl)c(Cl)c(Cl)c4C3=O)cc2)n1 | 7.76
13 | Cc1[nH]n(-c2ccccc2)c(=O)c1/C=N/N(C)c1ccccc1 | 9.89
14 | COc1ccc(-c2csc3ncn(-c4cccc(C)c4)c(=O)c23)cc1OC | 11.8
15 | COc1ccc(/C=C2/NC(=O)N(CC(=O)Nc3cccc(C)c3)C2=O)cc1O | 7.29
16 | COc1ccc(C(=O)OCC(=O)NC2CCCC2)c(OC)c1 | 14.7
17 | Cc1ccnc2nc(C(=O)NCc3ccccc3)nn12 | 15.8
18 | O=C(NC1CCCC1)C(c1ccncc1)N(C(=O)Cc1cccs1)c1ccccc1 (centres unmarked) | -6.88
19 | CCOc1ccc(Br)cc1S(=O)(=O)Nc1ccc(Cl)c(S(=O)(=O)N(C)C)c1 | 10.8
20 | COc1ccc(N2CCN(CCCn3c(=S)[nH]c4ncccc4c3=O)CC2)cc1 | 6.99
21 | Cc1[nH]nc2cn[nH]c12 | 5.48
22 | COc1ccc(S(=O)(=O)N(C)CC(=O)N2CCCC2)cc1Cl | 10.5
23 | CN(C)[C@@H]1C(=O)C(C(N)=O)=C(O)[C@@]2(O)C(=O)C3=C(O)c4c(O)ccc(Cl)c4[C@@H](O)[C@H]3C[C@@H]12.Cl | -17.4

Row | SMILES | hERG current change (%, negative = inhibition) at 1uM [%]
24 | O=C(c1ccncc1)N1CCN(CCc2ccccc2)CC1 | 0.866
25 | CCOc1ccc(C(=O)NC(=S)Nc2cccnc2)cc1[N+](=O)[O-] | 14.5
26 | Cc1ccc(-c2nn(-c3ccccc3)cc2C2CC(c3cccs3)=NN2C(=O)CCCC(=O)O)cc1 (centres unmarked) | 12.5
27 | Cn1c(=O)c2c(nc(CN3CCCCC3)n2CCc2ccccc2)n(C)c1=O | 0.232
28 | COc1ccc(CNc2ccc([N+](=O)[O-])cn2)cc1 | 5
29 | O=C1c2ccccc2C(=O)N1COc1ccc(S(=O)(=O)N2CCOCC2)cc1[N+](=O)[O-] | 11.7
30 | COc1cc(/C=N/NC(=O)CCC(=O)Nc2ccc(F)cc2)ccc1O | 16.4
31 | COc1ccc(N(C(=O)c2ccco2)S(=O)(=O)c2ccccc2)cc1 | -2.61
32 | CC(=O)NC1=NN(C(C)=O)C(c2ccccc2)S1 (centres unmarked) | 13
33 | C=CCNC(=S)NNC(=O)c1ccc(OCCC)cc1 | 11.1
34 | COc1ccc(Cl)cc1C(=O)N/N=C/c1ccc(N2CCOCC2)cc1 | 7.83
35 | COC(=O)Cc1cc(=O)n(-c2nc3ccccc3s2)[nH]1 | 2.88
36 | Cc1ccccc1-n1c(-c2ccco2)nc2ccccc2c1=O | 4.35
37 | COc1cc(C(=O)N2CCN(C3CCC(C)CC3)CC2)cc(OC)c1OC.O=C(O)C(=O)O (centres unmarked) | 17.5
38 | Cl.c1coc(CNCc2cccs2)c1 | 14.4
39 | Nc1nc(-c2ccco2)nn1C(=O)c1ccccc1 | 20.7
40 | COc1ccc(S(=O)(=O)N2CCC(C(=O)N(C)Cc3ccc(C)o3)CC2)cc1OC | 3.56
41 | CCOC(=O)Nc1ccc2ncn(C)c(=O)c2c1 | 17
42 | CCc1ccc(C(=O)NCC2COc3ccccc3O2)o1 (centres unmarked) | -8.4
43 | O=C(NN1C(=O)/C(=C/c2cccs2)SC1=S)c1ccncc1 | 7.13
44 | N#Cc1ccc(C(=O)OCCc2cc3ccccc3c(=O)o2)cc1 | -8.92
45 | CCOc1ccc(-c2n[nH]c(C)c2-c2ccccc2OC)c(O)c1 | 23.1
46 | CCOc1cc(C(=O)NCc2ccccc2)ccc1OCC(=O)N1CCOCC1 | 5.05

Row | SMILES | hERG current change (%, negative = inhibition) at 1uM [%]
47 | COc1cc(C)c(Br)cc1S(=O)(=O)N1CCOCC1 | 11
48 | COc1ccccc1NC(=O)/C(C#N)=C/c1cccn1C | 9.4
49 | C[C@@]12C(=O)N(c3cccc(Cl)c3)C(=O)N1[C@H](c1ccc(Cl)cc1)[C@@H]1C(=O)N(C3CCCCC3)C(=O)[C@@H]12 | 10.5
50 | CCN(c1ccccc1)S(=O)(=O)c1cc2c(cc1C)n(C)c(=O)c(=O)n2C | -16.4
51 | O=C(COc1ccccc1)N1CCN(C(=O)c2ccco2)CC1 | 5.18
52 | COc1cccc(C2C(C(=O)c3cc4ccccc4o3)=C(O)C(=O)N2CCN2CCOCC2)c1 (centres unmarked) | 11.6
53 | C=CCN(C(=O)c1csnn1)C(C(=O)NC1CCCC1)c1ccccc1F (centres unmarked) | 11.3
54 | Cc1cccc(NC(=O)COc2coc(CN3CCc4ccccc4C3)cc2=O)c1 | 16.9
55 | Cc1ccc(NC(=O)C(C)NS(=O)(=O)c2ccc(F)cc2)cc1C (centres unmarked) | 4.85
56 | O=C(CC(=O)Nc1ccc(Cl)cc1Cl)Nc1ccc(Cl)cc1Cl | 18.7
57 | O=[N+]([O-])c1ccccc1S(=O)(=O)NC1CC2CCC1C2 (centres unmarked) | 8.32
58 | FC(F)(F)c1ccccc1-n1c(-c2ccco2)n[nH]c1=S | 15.4
59 | CC(C)C(=O)Nc1nc(-c2ccc(S(=O)(=O)N3CCOCC3)cc2)cs1 | 4.67
60 | CCOC(=O)CCC(NC(=O)CCCC(=O)NC(CCC(=O)OCC)C(=O)OCC)C(=O)OCC (centres unmarked) | 13.2
61 | CC(C)c1ccccc1OCCNS(C)(=O)=O | -1.46
62 | CC1CCCCN1Cc1nc2ccccc2c(=O)[nH]1 (centres unmarked) | 11.7
63 | COc1ccc(C2/C=C\CN(C(=O)Oc3ccc(C(F)(F)F)cc3)CC(=O)N2Cc2ccc(F)cc2)cc1 (centres unmarked) | 2.11
64 | CCOC(=O)N1CCN(Cc2nc(Cc3cccc(C(F)(F)F)c3)no2)CC1 | 3.72
65 | COc1ccccc1N1C(=O)N(CC(=O)C(C)(C)C)c2ccccc2S1(=O)=O | 12.9
66 | c1ccc(CCc2nc(-c3ccccn3)no2)cc1 | 5.84
67 | O=C(Nc1ccc([N+](=O)[O-])cn1)C1CC2CCC1C2 (centres unmarked) | 7.87
68 | C/[N+]([O-])=C/c1c(OCc2ccc(Cl)cc2Cl)ccc2ccccc12 | 7.35
69 | Cc1ccc(NS(=O)(=O)c2ccc(N3CCN(c4ccc(O)cc4)CC3)c([N+](=O)[O-])c2)c(C)c1 | 12.3

Row | SMILES | hERG current change (%, negative = inhibition) at 1uM [%]
70 | CN(C)CCNC(=O)c1c(CSc2ccc(Cl)cc2)noc1C(=O)NCc1ccccc1 | 7.72
71 | CN(C(=O)COC(=O)COc1ccc(Cl)cc1Cl)c1c(N)n(Cc2ccccc2)c(=O)[nH]c1=O | 20.9
72 | CCCN1CCN(C(=S)NCc2ccc(Cl)cc2)CC1 | -6.02
73 | CCCCS/C(N)=N/N=C/c1cc(C)ccc1O | 5.04
74 | COc1ccccc1NC(=O)Nc1cc(F)ccc1F | 21.5
75 | COc1ccc(CCN2CC(C(=O)NC3CCCCC3)CC2=O)cc1OC (centres unmarked) | 14
76 | Cc1cc(N2CCC(C)CC2)n2nc(C)c(-c3ccccc3)c2n1 | 9.35
77 | COc1ccc(-c2nc(CS(=O)CC(=O)NC3CCCC3)c(C)o2)cc1OC (centres unmarked) | 8.08
78 | O=C(Nc1ccccc1)OCCNC(=O)c1cccc(Br)c1 | 8.74
79 | Cc1ccc(C(=O)COC(=O)CN2C(=O)C3C4C=CC(C4)C3C2=O)cc1[N+](=O)[O-] (centres unmarked) | 20.1
80 | CCOC(=O)Cc1csc(NC(=O)CN2CCCCC2)n1 | 15.6
81 | CCOc1nc(-c2ccccc2Cl)nc2ccccc12 | 4.21
82 | COc1ccc(/C=N/N2C(C)CCCC2C)cc1O (centres unmarked) | 11.6
83 | O=C(Cn1nc(C(F)F)cc1C1CC1)N1CCCC1 | 9.01
84 | COc1ccc(NC(=O)Cn2c(C)cc(=O)c3ccccc32)cc1 | 13.4
85 | CCCc1n[nH]c2c1/C(=N\OCC)CC(C)(C)C2 | 12.8
86 | Nc1ncnc(N)c1N=Nc1ccccc1 | 9.62
87 | O=C(NCc1ccncc1)C1CCCN1S(=O)(=O)c1ccc(Cl)cc1 (centres unmarked) | 5.02
88 | NNC(=O)c1ccc(COc2ccc([N+](=O)[O-])cc2)o1 | 9.25
89 | Cc1ccsc1/C=N/NC(=O)C1C(=O)NCC1c1ccccc1 (centres unmarked) | 2.72
